In paper PMC4336329 (PLoS ONE, 2015):
About 2,200 (0.71%) of roughly 310,000 compounds showed an effect of 50% or more. Effects have a minus sign here. Some of the results follow.

Target: human ether-à-go-go-related gene (hERG) potassium channel (human, UniProt Q12809)
Assay: primary screen, population patch clamp on CHO cells stably expressing hERG

Chain of human ether-à-go-go-related gene (hERG) potassium channel (Q12809 whole entry, looked up): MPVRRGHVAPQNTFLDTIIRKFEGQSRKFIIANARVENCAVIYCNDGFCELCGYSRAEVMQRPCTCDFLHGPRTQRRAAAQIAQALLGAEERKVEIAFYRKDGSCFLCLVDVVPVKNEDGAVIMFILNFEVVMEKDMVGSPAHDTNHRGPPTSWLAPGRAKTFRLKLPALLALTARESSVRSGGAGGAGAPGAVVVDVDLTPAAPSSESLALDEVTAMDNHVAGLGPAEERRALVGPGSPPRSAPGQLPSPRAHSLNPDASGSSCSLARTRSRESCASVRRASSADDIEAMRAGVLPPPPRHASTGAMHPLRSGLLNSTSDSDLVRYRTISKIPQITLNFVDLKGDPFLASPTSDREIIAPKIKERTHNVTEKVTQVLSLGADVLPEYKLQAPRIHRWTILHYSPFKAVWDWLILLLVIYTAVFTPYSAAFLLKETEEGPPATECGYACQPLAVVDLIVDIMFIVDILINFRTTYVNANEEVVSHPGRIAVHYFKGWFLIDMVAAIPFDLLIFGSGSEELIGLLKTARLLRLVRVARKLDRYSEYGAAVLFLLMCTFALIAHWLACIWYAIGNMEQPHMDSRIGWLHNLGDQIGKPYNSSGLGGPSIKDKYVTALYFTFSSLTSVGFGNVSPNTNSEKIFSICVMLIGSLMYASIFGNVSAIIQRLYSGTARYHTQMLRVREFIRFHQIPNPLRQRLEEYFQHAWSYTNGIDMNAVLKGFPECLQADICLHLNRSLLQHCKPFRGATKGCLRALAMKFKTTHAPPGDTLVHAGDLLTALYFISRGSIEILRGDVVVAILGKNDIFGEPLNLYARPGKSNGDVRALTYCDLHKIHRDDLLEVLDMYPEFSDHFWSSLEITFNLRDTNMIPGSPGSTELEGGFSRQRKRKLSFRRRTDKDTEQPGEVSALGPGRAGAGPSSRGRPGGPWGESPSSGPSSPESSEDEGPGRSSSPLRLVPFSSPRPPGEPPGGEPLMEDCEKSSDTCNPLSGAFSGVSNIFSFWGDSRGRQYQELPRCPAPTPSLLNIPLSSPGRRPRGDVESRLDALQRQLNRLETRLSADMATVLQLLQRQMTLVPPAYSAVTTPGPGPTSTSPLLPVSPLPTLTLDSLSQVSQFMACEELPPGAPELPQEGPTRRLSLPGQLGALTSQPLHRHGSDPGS

Compound | hERG current change (%, negative = inhibition) at 1uM [%]
C(=N\n1cnnc1)/c1cccc2ccccc12 | 14.1
O=C(CN1CCN(c2ccc(O)cc2)CC1)NCC(=O)Nc1ccc(F)c(F)c1F | -0.0036
O=C(CN1C(=O)COc2ccccc21)N1CCN(c2ccccc2F)CC1 | 8.93
O=S(=O)(Nc1nc2c(s1)CCCC2)c1ccc(Br)cc1 | 6.62
CCCCn1c(N)c(N(CC(C)C)C(=O)C2=NN(c3ccccc3)C(=O)CC2)c(=O)[nH]c1=O | 8.93
COc1cc2cc(CN(CCc3ccccc3C)C(=S)NCCCN(C)C)c(=O)[nH]c2cc1OC | 3.04
Cc1nn(CC(=O)NCCCN2CC(C)CC(C)C2)c(=O)c2cccn12 (stereo not drawn) | 22.4
O=C(Nc1ccc(C(=O)N2CCOCC2)cc1)c1ccc([N+](=O)[O-])cc1 | 5.77
COc1cccc(CNC(=O)CCS(=O)(=O)c2ccccc2Cl)c1 | 10.1
Cc1cc2nc(CCN3CCOCC3)n(S(=O)(=O)c3ccc(C(C)(C)C)cc3)c2cc1C | 5.15
Cc1ccc2oc(=O)n(CCCOc3ccccc3C)c2c1 | 12.5
CCN(CC(=O)Nc1c(F)cccc1F)C(=O)C1CC(=O)N(CCc2ccccc2)C1 (stereo not drawn) | 0.0762
O=C1CC2(CCN(C(=O)c3ccc([N+](=O)[O-])cc3)CC2)Oc2ccccc21 | -87.5
Cc1ccc(-c2cc(C(=O)N/N=C/c3cccnc3)c3ccccc3n2)cc1C | 18.4
CC(=O)NC(N1CCCCC1)C(F)(F)C(F)(F)C(F)(F)C(F)F (stereo not drawn) | 5.03
Brc1ccccc1-c1nnc2sc(Cc3ccccc3)nn12 | 4.98
COc1ccc(NC(=O)c2nnn(CC(=O)Nc3ccccc3OC)c2N)c(OC)c1 | 11.2
COc1cc(-c2nc3ccccc3nc2-c2ccc(O)c(OC)c2)ccc1O | 16.3
COc1ccccc1N1CCN(S(=O)(=O)c2ccc3nc(-c4ccccc4)[nH]c3c2)CC1 | -2.51

Compound | hERG current change (%, negative = inhibition) at 1uM [%]
COc1ccc(C(=O)COC(=O)c2ccn(C)n2)cc1 | 9.85
CCOC(=O)c1[nH]c2ccccc2c1NC(=O)c1ccc(S(=O)(=O)N2CCOCC2)cc1 | 7.67
COc1ccc(CNC(=O)CCc2c(C)nc3cc(-c4ccccc4OC)nn3c2C)cc1 | -0.803
CSC1=C(C#N)C(CC(C)C)C(C(C)=O)=C(C)N1 (stereo not drawn) | 6.89
Cc1cc(C)c(NC(N)=S)c(C)c1 | 12.3
O=C(Nc1ccc(F)cc1)N1CCc2ccccc2C1 | 10.6
O=c1cc(NCc2ccco2)c2ccccc2o1 | 11.6
O=C(N/N=C/c1cccnc1)c1ccc(NC(=O)c2cccc(Cl)c2)cc1 | 17.5
Cl.c1ccc2c(c1)N1CCN=C1N2CCN1CCCCC1 | 3.76
CCC(=O)Nc1ccc(S(=O)(=O)Nc2nccs2)cc1 | 21.5
COc1ccc(C(C(=O)OCCN(C)C)c2ccccc2)cc1.Cl (stereo not drawn) | -2.84
CNC(=O)c1cc(S(=O)(=O)Nc2ccc3c(c2)OCCO3)ccc1C | 12.2
CC(=O)c1cc(NC(=O)c2ccccc2)c(=O)oc1C | 13.8
COc1ccc(-c2cc(CNC(=O)CN3CCN(C)CC3)on2)cc1 | 9.87
COc1cc(C)c(NC(=S)Nc2ccc(Cl)c(Cl)c2)cc1OC | 15.7
Cc1ccccc1-c1nc(Cc2ccc(Cl)cc2)no1 | 12.7
CC1(C)CC(=O)C2=C(C1)N=C1c3ccccc3C(=O)C1C2c1ccc(Cl)cc1 (stereo not drawn) | 14.3
CCC(CCC(=O)Nc1ccc(S(N)(=O)=O)cc1)C(=O)O (stereo not drawn) | 2.72
COc1cc(NC(=O)c2ccccc2)c(OC)cc1NC(C)=O | 0.426

Compound | hERG current change (%, negative = inhibition) at 1uM [%]
COc1ccc(C(=O)Nc2ccc(-c3ccc(C)o3)cc2)cc1S(=O)(=O)N1CCOCC1 | 12.2
O=C(Nc1ccc(N2C(=O)C3C4C=CC(C4)C3C2=O)cc1)Nc1nnc(C(F)(F)F)s1 (stereo not drawn) | 10.2
O=C(Nc1ccc(C(=O)O)cc1)/C(=C\c1ccc2c(c1)OCO2)NC(=O)c1ccco1 | 19.4
O=[N+]([O-])c1ccc(OCC(O)CN2CCN(c3ccccc3F)CC2)cc1 (stereo not drawn) | -77.6
Cn1c2c(c(=O)n(C)c1=O)C(C(F)(F)F)(C(F)(F)F)N=C(C1CCCCC1)N2 | 11.9
CCCCSCCCNC(=S)Nc1ccccc1C | 6.85
CN(CC(=O)Nc1cccc(F)c1)C(=O)c1cccnc1Sc1ccccc1 | -5.63
COCC(C)NCc1ccccc1C.O=C(O)C(=O)O (stereo not drawn) | 3.63
Cc1cc(NC(=O)CS(=O)(=O)c2c[nH]c3ccccc23)no1 | 10.9
CN(C)C(C(=O)NC1CCCCC1)c1ccc(Cl)cc1 (stereo not drawn) | 6.84
COc1ccc(CC(=S)N2CCOCC2)cc1OC | 21.5
N#Cc1ccccc1OCC(=O)NCCNC(=O)COc1ccccc1C#N | 5.59
COc1cc(Cc2nccc3cc(OC)c(OC)cc23)c(NC(C)=O)cc1OC | 22.3
CCN(CC)C(=O)c1nn(Cc2ccccc2)c(=O)c2ccccc12 | -1.69
Cc1cc(NC(=O)C(C)C)ncc1NC(=O)c1ccccn1 | -0.974
Cn1c(=O)cc(OCCCC(=O)NC2CCCC2)c2ccccc21 | 5.33
Cc1ccc(CNC(=O)C(Cc2ccccc2)NS(=O)(=O)c2cccs2)cc1 (stereo not drawn) | 9.39
CC1CCN(C(=O)Cn2cnc3c(cnn3C(C)(C)C)c2=O)CC1 | 3.8
COC(=O)c1nc(-n2nc(C)cc2C)ccc1Cl | -12.9
